Among all 44,000 compounds or so, about 340 (0.77%) were called active. Another 5% or so got no clear call; they are omitted. Calls come from the whole dose curve; as a rule, active = well fitted inhibition curve with a large enough effect; inconclusive = small, poorly fitted or top-dose-only effect; inactive = flat fitted curve, though single readings scatter. This is one part of the list.
Assay: Acumen qHTS Assay for Inhibitors of the mTORC1 Signaling Pathway in MEF (Tsc2-/-, p53-/-) Cells: Sytravon;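 note: plate controls were DMSO for no effect and rapamycin for full effect; nearly all actives have a fitted effect of over 50% in size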
Conditions: phospho-rpS6 immunofluorescence/PI, 24 h; series mostly up to 38.3 µM; activity change, negative = inhibition: at the top concentration
Method in brief: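 Cell-based qHTS: Tsc2-/- p53-/- MEF, 24 h cpd, 37 °C; fix/perm, anti-phospho-S6 Alexa-488 + PI; Acumen 488 nm scan; pS6/PI ratio, % positive cells; rapamycin 7.5 nM = inhibition ref; PI count = viability.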

Activity change, negative = inhibition, inactive:
CC1CCCN(CCCNC(=O)CN2C(=O)CSc3ccc(S(=O)(=O)N4CCOCC4)cc32)C1 (stereo not given) -0.929%, COc1ccc(-c2nc3sc(CCNC(=O)C(=O)Nc4c(C)cccc4C)c(C)n3n2)cc1 0.353%, COc1ccc(N2CCN(C(=O)c3oc4ccccc4c3NC(=O)c3ccccc3OC)CC2)cc1 0%, O=C(Cn1c(=O)oc2cc(S(=O)(=O)NC3CCCC3)ccc21)Nc1ccc(F)c(F)c1 -7.61%, Cc1ccc(Cl)cc1N1CCN(S(=O)(=O)c2cc3[nH]c(=O)c(=O)[nH]c3cc2C)CC1 -0.328%, CCc1ccc(OCC(=O)N(Cc2ccc(OC)cc2)C2CCS(=O)(=O)C2)cc1 (stereo not given) -18%, O=C(CCn1c(=O)c2cccn2c2cccnc21)N1CCN(c2cccc(Cl)c2)CC1 -12.1%, Cc1cccc(-c2nc(SCC(=O)Nc3ccc4c(c3)OCO4)c(-c3ccccc3)[nH]2)c1 -3.65%, CN1C(=O)Cc2cc(S(=O)(=O)NCCc3ccccc3)ccc21 -6.54%, COc1ccc(NC(=O)C2CCCN2S(=O)(=O)c2ccc3nc(-c4ccccc4)[nH]c3c2)cc1 (stereo not given) -5.97%, CCN1CCN(C(=O)c2ccc3c(c2)N(Cc2cccc(F)c2)C(=O)c2ccccc2S3)CC1 1.97%, COCCCNC(=O)Cn1cnc2sc(C)c(S(=O)(=O)N3CCN(c4ccccc4OC)CC3)c2c1=O -7.16%, CCOC(=O)c1cc(-c2ccc(C)cc2)n(CCC(=O)Nc2ccc(OC)c(OC)c2)c1C -11.9%, CCCCCN1C(C(=O)c2ccccc2)=C(NC(=O)c2ccccc2Cl)c2ccccc2S1(=O)=O -1.63%, COc1ccc(CCNC(=O)c2ccc3c(c2)N(Cc2ccc(Cl)cc2)CCS3)c(OC)c1 -17.7%, COC(=O)c1c(NC(=O)COc2cc(C)ccc2C(C)C)sc2c1CCC(C)C2 (stereo not given) 8.57%, CC(=O)c1ccc(N2CCN(S(=O)(=O)c3ccc(-c4cc(C)no4)s3)CC2)cc1 6.5%, Cc1cc(C)c(S(=O)(=O)n2cnc(C)c2)c(C)c1 -1.82%, COc1ccc(-c2nc3n(n2)C(=O)CC(c2ccc(Cl)cc2)S3)cc1 (stereo not given) 1.25%, Cc1ccc(-c2ccc(=O)n(CC(=O)NCc3ccc(F)cc3)n2)cc1 -9.36%, CCC(C)NC(=O)C1CCC(CNS(=O)(=O)c2ccc(Cl)cc2)CC1 (stereo not given) 1.66%, CCOC(=O)C1CCN(S(=O)(=O)c2ccc3c(c2)NC(=O)C(C)C(=O)N3)CC1 (stereo not given) -28.5%, CCOC(=O)c1ccc(NC(=O)CC2NCCNC2=O)cc1 (stereo not given) 11.8%, CCn1c2ccccc2c2cc(NC(=O)COc3ccc(C)c(C)c3)ccc21 2.76%, COC(=O)c1ccc(NC(=O)C2CCN(C(=O)c3ccc(F)cc3)CC2)cc1 -26.9%, CC1=C(C(=O)Nc2ccccc2C)C(c2cccnc2)n2nc(SCc3ccccc3F)nc2N1 (stereo not given) 0%, CCOc1cc(C(=O)Nc2ccc(-c3nc4ncccc4o3)cc2C)cc(OCC)c1OCC -8.68%, CCS(=O)(=O)CCSc1nc(-c2ccc(Br)cc2)cc(-c2ccccc2)c1C#N 3.14%, O=C(O)CCc1ccc(-c2ccccc2)n1CC(=O)Nc1ccccc1C(F)(F)F 6.36%, COc1ccccc1CNC(=O)CCCCn1c(=O)c2ccccc2n(CC(=O)Nc2cc(Cl)ccc2C)c1=O -19.5%, Cc1ccccc1Nc1nn2c(=O)c3ccc(C(=O)N4CCCC(C)C4)cc3nc2s1 (stereo not given) -6.25%, COc1ccc2c(c1)c1c(c(=O)n(-c3ccccc3C)c(=O)n1CC(=O)Nc1c(C)cccc1C)n2C 3.32%, O=c1c2[nH]c3ccccc3c2nc(SCc2cccc(F)c2)n1-c1ccccc1 -2.31%, Cc1ccc(NC(=O)CCC(=O)N2Cc3ccccc3Oc3ncccc32)cc1 1.43%, COc1ccc(NC(=O)Cn2c(SCc3ccc(C)cc3)nc3cccnc32)c(OC)c1 -3.88%, COc1cccc(OC)c1C(=O)Nc1ccc2c(c1)N(C(C)=O)CCC2 6.56%, O=C(CCc1ccccc1)NC1CC(=O)N(c2ccccc2)C1 (stereo not given) -3.86%, O=C1CC(c2ccc(Cl)cc2)Sc2nc(-c3ccc(F)cc3)nn21 (stereo not given) -9.39%, CCOc1ccc(CNS(=O)(=O)c2cc(-c3cc(C)no3)ccc2C)cc1OC 2.72%, COc1ccc(-c2cnc(C)o2)cc1S(=O)(=O)Nc1ccc(C)c(N(C)C)c1 0%, Cn1c(=O)[nH]c2cc(-c3noc(-c4ccc(F)cc4)n3)ccc21 -4.11%, CCn1c(=O)cc(SCC(=O)NCCc2ccc(OC)cc2OC)c2ccccc21 0.524%, COCCCNC(=O)CSc1nc(-c2ccccc2)[nH]c1-c1ccc(C)cc1 -7.98%, CCc1ccc(-n2c(=O)c3c4c(sc3n(CC(=O)NC(C)CC)c2=O)CCCC4)cc1 (stereo not given) -6.32%, CCCn1c(=O)c2sccc2n2c(CCCC(=O)Nc3cccc(CC)c3)nnc12 -5.73%, CCc1cnc2c(c1SCC(=O)Nc1ccc(C)cc1C)c(=O)n(C)c(=O)n2C -6.6%, CC(C)c1ccc(NC(=O)c2ccc(NC(=O)CCS(=O)(=O)c3cccs3)cc2)cc1 -7.24%, Cc1ccc(CCNc2nc3c(S(=O)(=O)c4ccc(C)cc4)nnn3c3ccsc23)cc1 -2.2%, Cc1ccc(-n2ncc3c(NCCCc4ccccc4)ncnc32)cc1C 7.87%, COc1cc(CNC(=O)c2cc3n(n2)CCCN(Cc2ccc(C)cc2)C3=O)cc(OC)c1OC 5.84%, Cc1ccc(-c2c3c(=O)n(C)c(=O)n(C)c3c3c(C(F)(F)F)nc4ccccc4n23)cc1 1.56%, Cc1c(NC(=O)c2sc3c([N+](=O)[O-])cccc3c2Cl)cccc1-c1nc2ccccc2o1 -1.81%, CCS(=O)(=O)N1CC(=O)N(c2cccc(C)c2C)C(C)(C(=O)NC2CCCCC2)C1 (stereo not given) 0.732%, CCOC(=O)c1[nH]c(C)c(CCC(=O)Nc2ccc(N(CC)CC)cc2C)c1C -18.3%, Cc1nc(-c2ccc(F)cc2)sc1CCNC(=O)c1ccco1 2.27%, CCc1ccc(CNC(=O)CCN2C(=O)COc3ccccc32)cc1 1.35%, Cc1cc(C)cc(NC(=O)Cn2nnc(C(=O)Nc3cc(C)cc(C)c3)c2N)c1 -14.6%, COc1cc(NC(=O)Cn2c(C)cc3ccccc3c2=O)cc(OC)c1OC -9.39%, COc1cc(OC)cc(C(=O)Nc2c(C(=O)Nc3ccc(F)cc3)oc3ccccc23)c1 0.311%, CCOC(=O)c1cc(-c2ccccc2)n(CCCC(=O)Nc2cccc(Cl)c2C)c1C 0.689%

Source: PubChem BioAssay AID493208 (National Center for Advancing Translational Sciences (NCATS), 2011)
